Measurements: article PMC12136788
Some of the results follow.

T1: UNK ZnF1-3 (human, UniProt Q9C0B0 31-174)
T1 sequence: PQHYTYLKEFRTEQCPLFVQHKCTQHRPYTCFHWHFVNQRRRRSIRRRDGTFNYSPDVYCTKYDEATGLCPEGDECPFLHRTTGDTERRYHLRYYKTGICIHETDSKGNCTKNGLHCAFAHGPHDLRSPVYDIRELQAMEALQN

B1: chr6:86324874:86324875:-_ENSG00000135316_ENST00000355238|perfect_dup|FALSE|FALSE (ssRNA)
RNA: GGGAGUUCUACAGUCCGACGAUCGGAUGGAGCAGCACCCCUUGCUCCUCUACCACCCCUUCCUCUAGCUCCAACUUGAAAAUCUUCAUAACCAUAGUAUGGAUCUUCAUAUCCACCACGAUAGUUAUGGUAAUCAUAACCAUACAACAGAGGAUUGAGCAUCA
B2: chr5:28717518:28717519:+_ENSMUSG00000048271_ENSMUST00000114884|mus_mus|FALSE|FALSE (ssRNA)
RNA: GGGAGUUCUACAGUCCGACGAUCAGCAACAGGUGUAGAGGAGCAUCGGUUACCACUCAUCUCCAAAACAUGUGAAGGUGCUAUGGGGAGUUCACGGAGAUUACUGUUCCUGGGAGCAGUGGGUUGCAUCUGCUGCAUGGGCCGCAACAGAGGAUUGAGCAUCA
B3: chr11:77336104:77336105:-_ENSG00000074201_ENST00000525064|hu_mus|hu_hu_hu_mus_False|1_58 (ssRNA)
RNA: GGGAGUUCUACAGUCCGACGAUCCUCACACAUUGCUGUGAACAUCGCCUCCAAUGCUGACUUAUCACUGGGCACAAAUCUAAAUUCAGAAAUGGGUUCAACAUCAUCAUUGUCUUCCUCAUCUUCAUCAGAGAGAGCAGGUUCCAACAGAGGAUUGAGCAUCA
B4: chr18:56900473:56900474:+_ENSMUSG00000024590_ENSMUST00000025486|mus_hu|motif|central (ssRNA)
RNA: GGGAGUUCUACAGUCCGACGAUCAACAUCAAUUUCUUCGAUGCAAACAUUUCCAGUGGCUGAGGCGGAAUGAGAGAUGCGGACACGGCUACUCGCCUCUGAUUCUUCCACAUCAACCCUCUUCCGCUUUCCUCUAGUUGUACGCAACAGAGGAUUGAGCAUCA
B5: chr10:76735483:76735484:+_ENSG00000156650_ENST00000287239|hu_hu|FALSE|FALSE (ssRNA)
RNA: GGGAGUUCUACAGUCCGACGAUCAGUGCAUGACUGUUUCUGAGAGACCUUUUUCCUUGGACGAUAGUGCUUUGAAAAGUCUAUAAUUUCACCUCGUGAUCUGCGACCAUCAGGUGAUGGUGUAAAAAACUUAGUAAGGCCAUCCAACAGAGGAUUGAGCAUCA
B6: 120768299_120771588_1247_3pUTR_ENSMUSG00000027272_ENSMUST00000028728|mouse|control|control (ssRNA)
RNA: GGGAGUUCUACAGUCCGACGAUCCUGUUUAUAAUACUUCACAAAUUCCAUAGCAAAGAGUUUUUUGUAUUCCAUCUCCAUAAAAAAACUACUAAAGAUCAAUUCAUGAAGGAUCUUACGGGCACCUUUAUAAAGUUUUGCAUCCAACAGAGGAUUGAGCAUCA

The binders below were run against T1, UNK ZnF1-3 (assay: nsRBNS (natural sequence RNA bind-n-seq); RBNS binding buffer (assumed for nsRBNS): 25 mM Tris pH 7.5, 150 mM KCl, 3 mM MgCl2, 0.01% Triton X-100, 500 ug/ml BSA, 20 U/ml SUPERase-In, 4 C; UNK is unkempt and MSI1 is Musashi-1; names of the RNAs are library labels; protein concentration not given here; high values mean tight binding).
Binder B1 has a binding signal of 1.17 enrichment R.
B2 showed a binding signal of 2.02 enrichment R.
In the case of B3, the binding signal is reported as 1.11 enrichment R.
In the case of B4, the binding signal is reported as 0.447 enrichment R.
With B5 the binding signal was 0.743 enrichment R.
Binder B6 has a binding signal of 0.852 enrichment R.
